{"source": "paper PMC4336329", "about": "(PLoS ONE, 2015)", "note": "Out of some 310,000 compounds screened, about 2,200 (0.71%) showed an effect of 50% or more. The effect is printed as a negative number. The list shows a part of the results."}
{"biological_target": "human ether-à-go-go-related gene (hERG) potassium channel (human, UniProt Q12809)", "sequence (Q12809 whole entry, looked up)": "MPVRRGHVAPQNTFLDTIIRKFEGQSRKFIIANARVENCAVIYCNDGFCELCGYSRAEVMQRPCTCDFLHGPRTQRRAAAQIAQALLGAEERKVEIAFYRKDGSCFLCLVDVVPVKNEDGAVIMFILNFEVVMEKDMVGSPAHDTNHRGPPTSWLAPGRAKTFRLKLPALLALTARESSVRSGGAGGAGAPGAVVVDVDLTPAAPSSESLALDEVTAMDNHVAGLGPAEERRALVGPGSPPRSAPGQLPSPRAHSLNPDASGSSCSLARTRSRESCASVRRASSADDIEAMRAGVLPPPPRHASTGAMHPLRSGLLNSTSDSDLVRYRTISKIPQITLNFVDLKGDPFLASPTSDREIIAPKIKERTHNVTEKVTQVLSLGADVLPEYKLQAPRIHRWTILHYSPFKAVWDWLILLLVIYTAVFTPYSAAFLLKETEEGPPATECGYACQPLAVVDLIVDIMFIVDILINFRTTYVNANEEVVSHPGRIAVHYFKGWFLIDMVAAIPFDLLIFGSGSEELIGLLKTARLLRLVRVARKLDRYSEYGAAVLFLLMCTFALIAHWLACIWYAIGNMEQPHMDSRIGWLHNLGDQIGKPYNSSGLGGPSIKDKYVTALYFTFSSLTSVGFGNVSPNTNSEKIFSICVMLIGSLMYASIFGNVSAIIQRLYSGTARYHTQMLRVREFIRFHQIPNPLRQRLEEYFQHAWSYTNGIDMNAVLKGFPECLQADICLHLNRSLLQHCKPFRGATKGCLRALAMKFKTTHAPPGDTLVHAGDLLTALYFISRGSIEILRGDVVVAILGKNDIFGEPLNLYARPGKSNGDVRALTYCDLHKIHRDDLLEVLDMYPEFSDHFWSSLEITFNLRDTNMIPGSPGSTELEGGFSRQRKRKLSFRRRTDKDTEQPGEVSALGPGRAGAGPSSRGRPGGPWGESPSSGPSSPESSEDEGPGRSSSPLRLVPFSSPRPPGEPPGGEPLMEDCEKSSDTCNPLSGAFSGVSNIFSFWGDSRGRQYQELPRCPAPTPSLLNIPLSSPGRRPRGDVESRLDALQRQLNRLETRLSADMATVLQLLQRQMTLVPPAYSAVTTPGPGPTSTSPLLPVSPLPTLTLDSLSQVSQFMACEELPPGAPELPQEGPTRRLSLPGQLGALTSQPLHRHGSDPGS", "assay": "primary screen, population patch clamp on CHO cells stably expressing hERG", "units": {"hERG current change (%, negative = inhibition) at 1uM": "%"}}
{"smiles": "CCc1ccc(OCCCC(=O)Nc2ccc(N3CCCCC3)cc2)cc1", "hERG current change (%, negative = inhibition) at 1uM": 9.79}
{"smiles": "COc1ccc(N(C(C)C(=O)N/N=C/c2cc(Br)c(C)o2)S(C)(=O)=O)cc1", "note": "(centres unmarked)", "hERG current change (%, negative = inhibition) at 1uM": -0.97}
{"smiles": "CCCC/C(C)=N/NC(=O)c1cn(-c2ccccc2)nc1-c1ccccc1", "hERG current change (%, negative = inhibition) at 1uM": 22.3}
{"smiles": "CC1(C)C(=O)OC(c2cccn2-c2ccc([N+](=O)[O-])cc2)C(C)(C)C1=O", "note": "(centres unmarked)", "hERG current change (%, negative = inhibition) at 1uM": 9.3}
{"smiles": "CC1CCCCN1S(=O)(=O)c1ccc(N(C(=O)c2cnccn2)C(C(=O)NC2CCCC2)c2cccs2)cc1", "note": "(centres unmarked)", "hERG current change (%, negative = inhibition) at 1uM": 9.31}
{"smiles": "COCC(=O)Nc1c(C(=O)Nc2ccc3c(c2)OCCO3)oc2ccccc12", "hERG current change (%, negative = inhibition) at 1uM": 9.11}
{"smiles": "O=C(COc1cc2oc(=O)c3c(c2cc1Cl)CCC3)NCCCN1CCCC1=O", "hERG current change (%, negative = inhibition) at 1uM": -3.47}
{"smiles": "Cc1ccc(NC(=O)CN(C)S(=O)(=O)c2ccc3c(c2)n(C)c(=O)c(=O)n3C)cc1", "hERG current change (%, negative = inhibition) at 1uM": 15.9}
{"smiles": "O=C(Nc1ccccc1)C1CCCN1C(=O)Nc1ccccc1[N+](=O)[O-]", "note": "(centres unmarked)", "hERG current change (%, negative = inhibition) at 1uM": 15.2}
{"smiles": "COC(=O)c1ccccc1NC(=O)COc1ccc2c(c1)OCO2", "hERG current change (%, negative = inhibition) at 1uM": 7.27}
{"smiles": "CCOC(=O)[C@H]1[C@H]2COc3ccccc3[C@@H]2N2C(=O)c3c(C)cc(C)cc3NC(=O)[C@@]12C", "hERG current change (%, negative = inhibition) at 1uM": 0.144}
{"smiles": "O=C(NN1CCOCC1)NC12CC3CC(CC(C3)C1)C2", "hERG current change (%, negative = inhibition) at 1uM": 15.2}
{"smiles": "C#CCNc1ccncc1S(=O)(=O)NC(=O)NC(C)C.O=[N+]([O-])O", "hERG current change (%, negative = inhibition) at 1uM": 1.82}
{"smiles": "CS(=O)(=O)N(CC(=O)O)c1cc(C(F)(F)F)ccc1Cl", "hERG current change (%, negative = inhibition) at 1uM": 9.34}
{"smiles": "O=C(NC1CCCCC1)c1sc(N2CCOCC2)nc1-c1ccccc1", "hERG current change (%, negative = inhibition) at 1uM": 4.7}
{"smiles": "CC(C)[C@H](NC(=O)C1CCN(S(=O)(=O)c2ccccc2)CC1)C(=O)NCc1ccco1", "hERG current change (%, negative = inhibition) at 1uM": 12}
{"smiles": "CC1=C(C(=O)O)N2C(=O)C(NC(=O)c3nn(C)cc3Cl)C2SC1", "note": "(centres unmarked)", "hERG current change (%, negative = inhibition) at 1uM": 11.1}
{"smiles": "CC(=O)N1CCc2cc(S(=O)(=O)CCC(=O)NCCc3ccc(Cl)cc3)ccc21", "hERG current change (%, negative = inhibition) at 1uM": 5.03}
{"smiles": "COC(=O)c1ccc(CNC(=O)COC(=O)C2CC3C=CC2C3)cc1", "note": "(centres unmarked)", "hERG current change (%, negative = inhibition) at 1uM": 6.97}
{"smiles": "Cc1ccc(-c2nnc(Nc3ccc4c(c3)nc(C)n4C)c3ccccc23)cc1", "hERG current change (%, negative = inhibition) at 1uM": 9.15}
{"smiles": "COc1ccc(NC(=O)CCCSc2ccccc2)cc1S(N)(=O)=O", "hERG current change (%, negative = inhibition) at 1uM": 10.4}
{"smiles": "Cc1nn(CC2CC2)c(=O)n1-c1ccc(F)cc1", "hERG current change (%, negative = inhibition) at 1uM": 11.1}
{"smiles": "CSc1nc2c(c(=O)[nH]c(=O)n2C)n1Cc1ccccc1Cl", "hERG current change (%, negative = inhibition) at 1uM": 11.7}
